The values below are quoted from earlier work in publication PMC11006913.

The list shows a part of the results.

Holding throughout (conditions): PBM; conditions not shown; double strand, one strand shown; scale: upbm affinity estimate (log intensity, higher = more binding, comparable within an allelic series)
Data set [1] addresses ARX (Homo sapiens) (UniProt Q96QS3).
The target in data set [2] is ARX L343Q (Homo sapiens) (UniProt Q96QS3).
Data set [3] addresses ARX P353L (Homo sapiens) (UniProt Q96QS3).
For data set [4], the target named is ARX P353R (Homo sapiens) (UniProt Q96QS3).
The target in data set [5] is ARX R332H (Homo sapiens) (UniProt Q96QS3).
The target of data set [6] is ARX T333N (Homo sapiens) (UniProt Q96QS3).

Turning to GAGCCCCC [8-mer GAGCCCCC], the binding signal in data set [1] is 10.1; in data set [2] it was 9.96; in data set [3], 10.2; in data set [4], 9.95; in data set [5], 9.91; in data set [6] it was 10.2.
In the case of CTGCGCTC [8-mer CTGCGCTC], the binding signal in data set [1] is 10.2; in data set [2] it was 10.2; in data set [3], 10.1; in data set [4], 10.2; in data set [5] it was 10.2; in data set [6], 10.2.
CGAACGCC [8-mer CGAACGCC]: the binding signal is 10.2 in data set [1]; 10.2 in data set [2]; 10.2 in data set [3]; 10.1 in data set [4]; 10.2 in data set [5]; 10.3 in data set [6].
As for GAGGCCGC [8-mer GAGGCCGC], the binding signal in data set [1] is 10.1; in data set [2], 10.2; in data set [3], 10.2; in data set [4], 10.1; in data set [5], 10.2; in data set [6], 10.3.
Turning to CCGGGTAC [8-mer CCGGGTAC], the binding signal in data set [1] was 10.1; in data set [2], 10.2; in data set [3], 10.2; in data set [4], 10.1; in data set [5], 10.1; in data set [6], 10.2.
With AATAAGTA [8-mer AATAAGTA], the binding signal was 11.6 in data set [1]; 10.8 in data set [2]; 11.3 in data set [3]; 10.7 in data set [4]; 11 in data set [5].
With CTCAATAA [8-mer CTCAATAA], the binding signal was 11.4 in data set [1]; 10.6 in data set [2]; 11.2 in data set [3]; 10.6 in data set [4]; 10.8 in data set [5].
On to ATTAGGGG [8-mer ATTAGGGG], for which the binding signal is 12.1 in data set [1]; 10.6 in data set [2]; 11.9 in data set [3]; 10.5 in data set [4]; 10.6 in data set [5]; 11.3 in data set [6].
Consider TCGGGCCA [8-mer TCGGGCCA], for which the binding signal is 10.3 in data set [1]; 10.1 in data set [2]; 10.3 in data set [3]; 10.1 in data set [4]; 10.2 in data set [5]; 10.2 in data set [6].
As for ACATATTA [8-mer ACATATTA], the binding signal in data set [1] was 11.8; in data set [2], 10.8; in data set [3], 11.4; in data set [4], 10.9; in data set [5], 11.
As to GGGGGGCA [8-mer GGGGGGCA], the binding signal is 10.1 in data set [1]; 9.99 in data set [2]; 10 in data set [3]; 9.81 in data set [4]; 9.88 in data set [5]; 10.1 in data set [6].
Turning to ACCGCGGG [8-mer ACCGCGGG], the binding signal was 10.3 in data set [1]; 10.3 in data set [2]; 10.3 in data set [3]; 10.2 in data set [4]; 10.3 in data set [5]; 10.3 in data set [6].
For the sequence ATGAGTAA [8-mer ATGAGTAA], the binding signal in data set [1] is 11.1.
Consider AATTGCAT [8-mer AATTGCAT], for which the binding signal is 11.7 in data set [1]; 10.8 in data set [2]; 11.4 in data set [3]; 10.8 in data set [4]; 11 in data set [5].
Take GATTTACA [8-mer GATTTACA]: the binding signal is 11.1 in data set [1], 10.7 in data set [2] and 11 in data set [3].
With CGGTCGCC [8-mer CGGTCGCC], the binding signal in data set [1] was 10.3; in data set [2] it was 10.1; in data set [3], 10.2; in data set [4], 10; in data set [5] it was 10.1; in data set [6], 10.2.
For the sequence GCAGCCGC [8-mer GCAGCCGC], the binding signal in data set [1] is 10.3; in data set [2], 10.1; in data set [3], 10.2; in data set [4], 10.1; in data set [5] it was 10.1; in data set [6], 10.3.
On to TAGTAACA [8-mer TAGTAACA], for which the binding signal in data set [1] was 11.1.
For AGGGACCG [8-mer AGGGACCG], the binding signal in data set [1] was 10.3; in data set [2], 10.2; in data set [3] it was 10.4; in data set [4] it was 10.2; in data set [5] it was 10.1; in data set [6], 10.2.
With GCGGGAGC [8-mer GCGGGAGC], the binding signal in data set [1] is 9.94; in data set [2], 10.1; in data set [3] it was 9.99; in data set [4], 10.1; in data set [5], 10; in data set [6], 10.1.
Consider GACGGGGC [8-mer GACGGGGC], for which the binding signal in data set [1] was 10.2; in data set [2], 10.2; in data set [3], 10.2; in data set [4], 10.1; in data set [5], 10.2; in data set [6] it was 10.2.
For GCTAATCA [8-mer GCTAATCA], the binding signal is 12.6 in data set [1]; 10.8 in data set [2]; 12.2 in data set [3]; 10.8 in data set [4]; 10.9 in data set [5]; 11.5 in data set [6].
